Reference: the supplement of paper PMC11417369
Some of the results follow.

Each sequence was assayed on PfSIP2 AP2 domain 1 (GST-tagged) (assay: gcPBM binding intensity (ln(normalized median fluorescence intensity)); higher = stronger DNA binding).
Procedure, shortened: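 The highest Masliner-normalised natural-log median intensity across replicate spots of either probe orientation is reported as binding intensity. GST-tagged P. falciparum DNA-binding domains expressed in E. coli were applied for 1 h to an Agilent 4 × 180k array of primer-extended double-stranded 36-bp intergenic genomic probes plus negative controls, and bound protein was detected with Alexa488 anti-GST antibody and scanned at 488 nm.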

| Sequence | gcPBM binding intensity (ln) |
| --- | --- |
| TCAGATATATAGAATACACACATGGATATAAGAAAT [CACACA_site7831] | 7.08 |
| TTTTTGTAATATTATGATGTCATATATATATATATA [XGTACX_negctrl_site618] | 9.06 |
| ATATTTTGTAACTATACACACATATATATATTATAA [CACACA_site3062] | 7.05 |
| AAATTGGGTACAAATACACACACATATATATATTAA [CACACA_site8745] | 7.24 |
| ATAGATCCTAATGTTGTGCACATGTAAATTAATATA | 9.81 |
| TTTATACAATAAAATGCATGCAAGTATCTATTTTAT [TGCATGCA_site210] | 6.77 |
| TATAATGAACATATGTGTACATATATTTTTTAAATT [XGTACX_site8736] | 6.98 |
| AAAAAACAAAAAAAAAAAAAAATAATACAATATAAT [CACACA_negctrl_site1630] | 6.78 |
| ACCATATAAATAAACACACACACACCGATATATATA [CACACA_site5310] | 7.37 |
| GCACAACATATATTATCACACACATATATATATATA [CACACA_site8619] | 9.71 |
| CAAAAGAATATATGTAGTACATGTTGTAGATAATAT [XGTACX_site1044] | 7.22 |
| CGCGAAGTAGCATTCACACACAGCAAAATATAAATA [CACACA_site7608] | 6.75 |
| ATATATATATATAGTGCACACTTAAGAATATAAAGA [CACACA_site4771] | 10.2 |
| TGTTATATAATTTAGCGTACAGGTTATAGGACGGAT [XGTACX_site8823] | 7.55 |
| AACTATTACTTTCTTTCACACATTTTTTTTTTTTTT [CACACA_site5355] | 6.98 |
| AACTCTTAGAATGACGGTACAGTATAATAGGTGAAC [XGTACX_site7163] | 6.97 |
| ATATAATGAATTATTAGAAAATAAAATGAATAAAGT [CACACA_negctrl_site690] | 7.4 |
| ATCATATAAACATATTGTACTTAAATACATAATATT [XGTACX_site3800] | 7 |
| GGATACGCTTTTGTACCACTCCCCCTTTTGGGAATA [CACACA_negctrl_site1363] | 7.24 |

| Sequence | gcPBM binding intensity (ln) |
| --- | --- |
| TTTATTTATTTATGTGGTACTTCAAAAATATATACT [XGTACX_site355] | 7.06 |
| CAAACCCACGGACACACACACACAAAAATGATTAAA [CACACA_site5365] | 7.14 |
| TAAGAAAAAAGTAAATGTACAGAGAAAATTATCTAT [XGTACX_site7374] | 6.77 |
| ATTTATTACAAATGAATGCACTATATCTTAATTTTG | 8.22 |
| ATATATTTCCTGAGGAGTACTATGAAAGACAAAAAA [XGTACX_site5628] | 7.48 |
| ATAATTTTGATTATCACACATATATATATATATATG [CACACA_site5882] | 7.46 |
| TTTGTCATTTTATTATGTACTCAGCATATAGGGGGG [XGTACX_site505] | 9.51 |
| AAAAAAATTCTGACTTGTACATATAAAATTTACAAA [XGTACX_site4408] | 6.77 |
| GATTTTTAAAATATCACACATAAAAAAAAAAAAAAA [CACACA_site5516] | 6.96 |
| TAATTTAATAATTAGACACACATGTGGAAAATAAAA [CACACA_site5401] | 7.2 |
| ACATATATATAAAGGTGTACACATATATATATATAT [XGTACX_site4779] | 9.18 |
| ATACTAAAGAAACACACACACATATATATATAGAAT [CACACA_site100] | 7.01 |
| TTTACACCCTAAAAATGTACAAGAAAGATTATATTA [XGTACX_site1102] | 7.03 |
| ATTTTTTTCCTAATGGTGCGAATAAATATCCATACC | 9.88 |
| TTAACAGTAAAACACAGTACATATATACTTAAAACA [XGTACX_site1930] | 6.93 |
| AAAGCTTACATATACACACATACATAAATTCATAAA [CACACA_site2469] | 7 |
| AAAAAAAAAAAAGGAACACACAAGTAACAATAAATT [CACACA_site2481] | 6.83 |
| TTTTTTTATTATACTAGTACATATATATACAGCACA [XGTACX_site3464] | 7.4 |
| TAATCTCATAAAACCGCACACACATAAAATTTGCAT [CACACA_site3890] | 7.21 |

| Sequence | gcPBM binding intensity (ln) |
| --- | --- |
| TTTTTAATAATCTCTCAAAATGTTCTTATATTTTAC [CACACA_negctrl_site1691] | 6.67 |
| GAGAAATGGGGACACACACACATATTATAGATATAT [CACACA_site6829] | 7.2 |
| TTGTTTGATATCTTTGTCACGAAAAAAATATATATA [GTGCAC_negctrl_site54] | 7.21 |
| TAAGGATAAAATAAATGTACATATGTAAAATTATTA [XGTACX_site4170] | 6.68 |
| GTCTATAACTATTGCGCACACTTTAAAAAAAAAGAA [CACACA_site1003] | 9.11 |
| TAGAAGCATTGACACACACACATACATACACATACA [CACACA_site6802] | 7.32 |
| TATATATATATATAATGTACATAATAATAATACATC [XGTACX_site5587] | 8.99 |
| CTAGACTTTATTAATTGTACATATGTGTATTTTATA [XGTACX_site480] | 6.74 |
| TTTTCCTTTACATAATGTACACAAAAAAAAAAAAAA [XGTACX_site716] | 7.38 |
| GTTACTGCATACATAACACACATATTCAAAACCCAT [CACACA_site5856] | 7.13 |
| AATACAGACAGACACACACACAAAATAAAATACAAA [CACACA_site245] | 7.31 |
| CATCATAGAGTGGAGTGTACAAATATGTCAACATAT [XGTACX_site2264] | 7.04 |
| TCTTTTTTTTGAATTTGTACATAAGACAATAAAAAA [XGTACX_site4682] | 7.03 |
| ATAAAAAAATCAGACACACACACGTAAACCCATACA [CACACA_site2773] | 7.1 |
| ACATATTTATATATGTGTACATAAATATTCTTTTAA [XGTACX_site8238] | 6.92 |
| ATATTAAGGTTTATATTTTAACTTATTATTTTATTC [CACACA_negctrl_site795] | 6.63 |
| AAAAAAAAAAAACACACACACACACCCATATACATA [CACACA_site2664] | 7.12 |
| GTAAAAAGATAATGAAGTACATTTTTTCATTTTTAT [XGTACX_site5579] | 6.64 |
| ATATATTCAATTCATACACACACAATTTAAGAATGA [CACACA_site9289] | 7 |
